Results: the RNAGym collection of RNA variant scans (doi:10.7554/elife.90254)
Read counts are not given, so values of variants with three or more changes are uncertain.

B1: LINE1-mini (parent)
chain: GGCAGAGCUCAACACAGCGUGGCAAAGUGGCUGUGGCUAGACUGCC

Variants of: B1
Assay: self-cleavage, relative activity (ratio to wild type); higher = more cleavage; in vitro, sequencing; the parent is a self-cleaving ribozyme
U9A G27A A41U gave a self-cleavage of 0.17.
In the case of U9A G33A G36U C46A, the self-cleavage is reported as 0.04.
U9A C10U A12U G19C showed a self-cleavage of 0.07.
With U9A C23A A25G G27C C46G the self-cleavage was 0.05.
In the case of U9A G19U G40U, the self-cleavage is reported as 0.03.
With U9C A12C C23G G30U A39C the self-cleavage was 0.01.
Work on U9A G21U U32G G40U yielded a self-cleavage of 0.1.
In the case of U9C A16C C23G G36A A39U, the self-cleavage is reported as 0.03.
Variant U9A C10A G40A has a self-cleavage of 0.05.
U9A C10U C31U U34C showed a self-cleavage of 0.02.
Variant U9A C10A U34A A39G has a self-cleavage of 0.01.
Work on U9C A41U G44A yielded a self-cleavage of 0.
U9C C10A A11C gave a self-cleavage of 0.02.
With U9A C15A C23U C37A G40U the self-cleavage was 0.05.
For U9C C15U A25G, the self-cleavage was 0.06.
U9A G40C C45G showed a self-cleavage of 0.12.
U9C A25U C31U gave a self-cleavage of 0.01.
U9A G22A C31U C37G showed a self-cleavage of 0.03.
For U9C C13A G35U, the self-cleavage was 0.03.
For U9A C23A U43C, the self-cleavage was 0.06.
Variant U9A C13A G21U A26U C42G has a self-cleavage of 0.1.
For U9C C10G G19C C23U U38C, the self-cleavage was 0.01.
U9A U28A G44C gave a self-cleavage of 0.04.
U9C C10G G19A A41C U43G showed a self-cleavage of 0.01.
U9A G30A C46G gave a self-cleavage of 0.06.
In the case of U9A G22U A39C, the self-cleavage is reported as 0.01.
In the case of U9C A11C C18G G21U, the self-cleavage is reported as 0.05.
With U9A C15A A24G G33U C42G the self-cleavage was 0.22.
In the case of U9A G21A G30U C31U A41G G44A, the self-cleavage is reported as 0.03.
In the case of U9A C15A G19C C23A C37G, the self-cleavage is reported as 0.09.
In the case of U9C C10A G19A U20G G21U, the self-cleavage is reported as 0.01.
With U9C C10A U38G the self-cleavage was 0.02.
With U9A G21U G35A A39C G44U the self-cleavage was 0.02.
For U9C A12C G21A G22A, the self-cleavage was 0.01.
U9A G35C U43G gave a self-cleavage of 0.03.
In the case of U9A U28A G30U U32G A39C, the self-cleavage is reported as 0.01.
With U9C A14G A16G U20G U38G the self-cleavage was 0.01.
Work on U9C C10U A12U A14C G27U G29C yielded a self-cleavage of 0.
U9A U43A C46A showed a self-cleavage of 0.28.
U9C C15A G29C showed a self-cleavage of 0.02.
For U9A G17A C31A, the self-cleavage was 0.01.
U9A G22U C46A gave a self-cleavage of 0.2.
Variant U9C C10A G35U G36U has a self-cleavage of 0.01.
Variant U9A A39C C42A has a self-cleavage of 0.06.
In the case of U9C C10A C42G, the self-cleavage is reported as 0.03.
U9A C23U C31A showed a self-cleavage of 0.07.
U9C A12C G22C showed a self-cleavage of 0.03.
Variant U9A C10A U28C has a self-cleavage of 0.03.
U9A C13U G40C C46U showed a self-cleavage of 0.13.
For U9A G19A C37U, the self-cleavage was 0.15.
With U9A C13A U38C the self-cleavage was 0.09.
Work on U9C A14G G17U C18A A26C U34G C46A yielded a self-cleavage of 0.
U9A C10U G36C C46G showed a self-cleavage of 0.02.
U9A C10A C15G showed a self-cleavage of 0.
U9A U28A C37U showed a self-cleavage of 0.17.
For U9C A24U G33A, the self-cleavage was 0.04.
Variant U9A U20C G21U C31A G40U has a self-cleavage of 0.06.
For U9C A24C A26G, the self-cleavage was 0.01.
With U9A C10G G22U C45U the self-cleavage was 0.01.
U9C C10A C13U U43C C45U gave a self-cleavage of 0.04.
For U9A C13A A14U A41C C42U, the self-cleavage was 0.18.
U9A G30A A39G gave a self-cleavage of 0.08.
Work on U9C C13A A14C C23A C42G yielded a self-cleavage of 0.
Variant U9C A12G G40U has a self-cleavage of 0.
Variant U9C A11C A26U G40U G44A has a self-cleavage of 0.
In the case of U9C A11U C15G C23U G33A C45A, the self-cleavage is reported as 0.01.
U9A G21U C45G gave a self-cleavage of 0.41.
Work on U9A C18G U38C C42G C45A yielded a self-cleavage of 0.05.
U9C C13G G44U gave a self-cleavage of 0.
For U9C A14G C18A G21A C31A, the self-cleavage was 0.04.
Work on U9C A14G G27A yielded a self-cleavage of 0.05.
U9A G36A U38C G44A showed a self-cleavage of 0.11.
Variant U9A C31U U32G C42A has a self-cleavage of 0.08.
Work on U9A C18G G40U yielded a self-cleavage of 0.23.
Variant U9A C18U U38A has a self-cleavage of 0.13.
In the case of U9C A16C C18G, the self-cleavage is reported as 0.02.
Variant U9A C10A G22U has a self-cleavage of 0.12.
Work on U9C C10A G36A U43G yielded a self-cleavage of 0.02.
Variant U9C A11U G19C A24U A41C has a self-cleavage of 0.
Work on U9C A12U C42U U43G yielded a self-cleavage of 0.01.
With U9A G36A A41C C45G the self-cleavage was 0.03.
In the case of U9C C10A A14G G27U U32A, the self-cleavage is reported as 0.04.
U9C A11C C23U U38A gave a self-cleavage of 0.02.
Variant U9A C18A G33A G35C has a self-cleavage of 0.08.
U9C C13U G36A showed a self-cleavage of 0.01.
U9A G17U U20A G40C G44U showed a self-cleavage of 0.04.
U9C A11G A41C showed a self-cleavage of 0.02.
Work on U9A G27U C46G yielded a self-cleavage of 0.13.
With U9A C18G G22C G27C G29A the self-cleavage was 0.03.
In the case of U9A G19A G22A A24C U28A G35U, the self-cleavage is reported as 0.17.
In the case of U9A U28C G29U C37A, the self-cleavage is reported as 0.08.
With U9C A12C G17C A39U the self-cleavage was 0.
Work on U9C A11G A39U yielded a self-cleavage of 0.
Work on U9A U32G G33A yielded a self-cleavage of 0.23.
Work on U9A U20C G21A C23U yielded a self-cleavage of 0.06.
U9A G30U U43C C45A showed a self-cleavage of 0.11.
U9C A26G G33C U38G gave a self-cleavage of 0.02.
U9A C18A C31A gave a self-cleavage of 0.1.
U9C A14U U20A G33A G44A showed a self-cleavage of 0.05.
With U9A G17C G19A the self-cleavage was 0.08.
For U9C A26G U32C G36U C46G, the self-cleavage was 0.01.
Variant U9A C10U G21A A24U has a self-cleavage of 0.04.
With U9C C15U U32A the self-cleavage was 0.01.
U9A G17U A25G G30U showed a self-cleavage of 0.02.
U9C A12U C15U showed a self-cleavage of 0.
Work on U9A G21U A25C C45A yielded a self-cleavage of 0.14.
Work on U9A G19C A24C G30A U32A C45G yielded a self-cleavage of 0.05.
With U9A C10A C13A U43A the self-cleavage was 0.08.
Variant U9C C15G C18U C42A has a self-cleavage of 0.02.
Work on U9A C10U A11U G22C yielded a self-cleavage of 0.01.
Variant U9C C13U A14G G22C has a self-cleavage of 0.02.
In the case of U9A C13G A16C U28A, the self-cleavage is reported as 0.05.
Variant U9A G21U G33A G40U has a self-cleavage of 0.02.
Variant U9A C18G U43A has a self-cleavage of 0.01.
U9A G33U C42A gave a self-cleavage of 0.15.
In the case of U9A G27C G29C, the self-cleavage is reported as 0.02.
For U9C C18G A39G, the self-cleavage was 0.03.
With U9C C13G A24C G30U C37A the self-cleavage was 0.
Variant U9C C18A G30A U32A has a self-cleavage of 0.02.
U9A C15U G19A U43C showed a self-cleavage of 0.15.
U9A G19C G22A U34G showed a self-cleavage of 0.04.
Work on U9A G17C G19A U28A A39C yielded a self-cleavage of 0.28.
With U9A U28A G33C the self-cleavage was 0.04.
In the case of U9A G17A G22U G29U, the self-cleavage is reported as 0.01.
U9A G27A U43A C46A gave a self-cleavage of 0.1.
U9A C10G U20C gave a self-cleavage of 0.01.
U9A G21C U34G C45U showed a self-cleavage of 0.15.
U9A C18U G36A C37A gave a self-cleavage of 0.27.
Work on U9C A24U C37G yielded a self-cleavage of 0.01.
Work on U9A G19U G21C A39U C46U yielded a self-cleavage of 0.05.
Work on U9C C10U A41G yielded a self-cleavage of 0.02.
In the case of U9A G17C C18U C23U, the self-cleavage is reported as 0.02.
For U9A U28G C37A C42G, the self-cleavage was 0.07.
U9A C10A G35U gave a self-cleavage of 0.01.
U9A C37G C46U gave a self-cleavage of 0.05.
In the case of U9C A14C G33A, the self-cleavage is reported as 0.03.
U9A C13U C15A G40U showed a self-cleavage of 0.08.
Variant U9A G19A G22A has a self-cleavage of 0.15.
Variant U9A C31G A39U has a self-cleavage of 0.04.
With U9A U28A G35U the self-cleavage was 0.1.
Work on U9C A26U C31G yielded a self-cleavage of 0.
For U9A U28A A39U, the self-cleavage was 0.13.
In the case of U9A C31U A41C C45G C46A, the self-cleavage is reported as 0.01.
With U9A G19C G30U U32A G35U the self-cleavage was 0.16.
With U9A C10A G35C U43A the self-cleavage was 0.01.
U9C C15A A16G C42U showed a self-cleavage of 0.
With U9A C13U G27U the self-cleavage was 0.1.
U9A C10U G29C C31U G40C gave a self-cleavage of 0.03.
U9C C10U A11C A26U G27U showed a self-cleavage of 0.02.
In the case of U9A G17U G19A G27A G36A, the self-cleavage is reported as 0.58.
With U9A C18U C37G C46A the self-cleavage was 0.
In the case of U9A C10G G29U, the self-cleavage is reported as 0.03.
Work on U9A C13A G19U A24C G30C yielded a self-cleavage of 0.13.
U9A G36C C42U G44A showed a self-cleavage of 0.01.
In the case of U9C C15U A39C, the self-cleavage is reported as 0.06.
U9A G36A C45A showed a self-cleavage of 0.16.
U9A A26U G27A U38C G44A showed a self-cleavage of 0.03.
In the case of U9A A41G G44C, the self-cleavage is reported as 0.02.
U9A C15U A24G G29U showed a self-cleavage of 0.19.
Variant U9C A11G C42U has a self-cleavage of 0.02.
U9A A26C U34A showed a self-cleavage of 0.03.
Work on U9A C10U C18A yielded a self-cleavage of 0.14.
In the case of U9A G22A G44C, the self-cleavage is reported as 0.07.
In the case of U9A G29C C46U, the self-cleavage is reported as 0.06.
Variant U9A G44A C45U has a self-cleavage of 0.13.
Variant U9A G21U C46U has a self-cleavage of 0.12.
For U9C A12G G17U, the self-cleavage was 0.01.
